# Experimental data: PubChem BioAssay AID651820 (National Center for Advancing Translational Sciences (NCATS), 2012)
# Among all 340,000 compounds or so, about 12,000 (3.5%) were called active. The inconclusive results got no clear call from the source; some entries with a clear call stand among them for comparison. The call rests on the fitted dose curve; in most records, active means well fitted inhibition curve with a large enough effect; inconclusive means small, poorly fitted or top-dose-only effect, or another doubt; inactive means no such curve, though single readings can be large or run the other way. Potencies of inconclusive entries are left out as doubtful fits.
# Experiment: qHTS Assay for Inhibitors of Hepatitis C Virus (HCV)
# Settings: Huh7.5.1 HCVcc-Cre (HCVcc is cell-culture hepatitis C virus) infection, luciferase reporter, 44 h; activity change, negative = inhibition: at 41.8 µM (top of the series)
# Outline: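 Cells (1,000/well) were plated 4 h before compound, then infected with HCVcc-Cre virus (~0.5 moi). After 44 h further culture, infection was read as luciferase luminescence following a 15 min substrate incubation at room temperature.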
# On the % scale 0 is the no-effect control and ±100 the full control effect; potency means the concentration at half of the fitted maximal effect; tags describe the fitted curve by direction and shape.
Compound,"activity change, negative = inhibition",Potency
CCCc1ccc2oc(C(=O)N(C)Cc3cnccn3)c(C)c2c1,inactive: 10.2%,
O=C(CSc1ccc(Br)cc1)N1CCOCC1,inactive: 6.21%,
C#CCSc1nnc(-c2ccccc2)c(=O)[nH]1,,"inconclusive [inhibitor, full curve]"
Cc1ccc(C)c2[nH]c(=O)c(CN(CC3CCCO3)S(=O)(=O)c3ccc4c(c3)OCCO4)cc12 (stereo not drawn),,"inconclusive [inhibitor, partial curve]"
COc1ccc(Nc2nc(NC(C)(C)C)nc(N3CCCC3)n2)c(OC)c1,,active: 5.62 µM
COc1cc(/C=N\NC(=O)CC#N)ccc1OC/C=C/c1ccccc1,,"inconclusive [inhibitor, single point]"
CCN(CC(=O)Nc1c(F)cccc1F)C(=O)c1ccc(C)c(S(=O)(=O)N2CCCCC2)c1,,"inconclusive [inhibitor, single point]"
Cc1ccc(-n2nnnc2CNC(=O)c2ccc([N+](=O)[O-])o2)cc1C,,active: 22.4 µM
COc1ccc(Cl)cc1C(=O)Nc1ccccc1N1CCN(C)CC1,,"inconclusive [inhibitor, partial curve]"
COc1cc(/C=C2\SC(N)=NC2=O)ccc1OCC(=O)Nc1ccc(C)cc1,,"inconclusive [inhibitor, single point]"
COc1ccccc1C1CC(=O)Oc2cc(C)c(Cl)cc21 (stereo not drawn),inactive: 11.8%,
N#CC(CO)(Cc1ccc(OC(F)F)cc1)c1nc2ccccc2[nH]1 (stereo not drawn),,"inconclusive [inhibitor, partial curve]"
O=[N+]([O-])c1ccc(OCCN2CCNCC2)cc1,inactive: -2.96%,
COc1ccc(Cl)cc1NC(=O)CN(C1CCCCC1)S(C)(=O)=O,,active: 4.47 µM
O=C(CN1CCCc2ccccc21)N/N=C/c1ccccc1,inactive: -3.58%,
c1ccc(-c2nc(N3CCCC3)nc3ccccc23)cc1,,"inconclusive [inhibitor, single point]"
COc1ccc(/C=N/Nc2nc(Nc3ccccc3)nc(N3CCCC3)n2)cc1[N+](=O)[O-],,"inconclusive [inhibitor, partial curve, poor fit]"
Cc1ccccc1OCC(=O)NNC(=O)c1ccc(-c2ccccc2)cc1,,"inconclusive [inhibitor, partial curve]"
N#C/C(=N\Nc1ccc(S(=O)(=O)N2CCc3ccccc32)cc1)C(N)=S,inactive: -26.4%,
Cc1c(NC(=O)C(C)c2ccc(CC(C)C)cc2)c(=O)n(-c2ccccc2)n1C (stereo not drawn),,"inconclusive [inhibitor, partial curve]"
CN(C)C1=NC[C@H](Cc2ccccc2)N1CCC1CCCC1,,"inconclusive [inhibitor, partial curve]"
Cc1ccccc1-n1c(SCC(=O)NCc2cccs2)nnc1-c1ccncc1,inactive: -5.89%,
C=CCn1c(=O)c2c(nc3n2CCCN3CCc2ccccc2)n(C)c1=O,inactive: -1.1%,
CC1CCCCN1Cc1nc2c(c(=O)n(C)c(=O)n2C)n1CCc1ccccc1 (stereo not drawn),inactive: -1.84%,

Compound,"activity change, negative = inhibition",Potency
O=C(NCCSc1ccccc1)c1cncc(Br)c1,inactive: 8.14%,
Fc1ccccc1CCNc1c2c(nc3ncnn13)CCCC2,,"inconclusive [inhibitor, single point]"
CCn1c(SCC(=O)Nc2nc(-c3ccccc3)cs2)nnc1-c1ccccc1,,"inconclusive [inhibitor, single point]"
Nc1ccc2nc(CCCCc3nc4ccccc4[nH]3)[nH]c2c1,inactive: 9.96%,
O=C(NC1CCN(Cc2ccccc2)CC1)c1cccc(NS(=O)(=O)c2ccc(Br)cc2)c1,,active: 11.2 µM
Cc1ccc(S(=O)(=O)Nc2ccccc2-c2ccccc2)cc1,,"inconclusive [inhibitor, single point]"
CCCCC1C(=O)N(c2ccccc2)N(c2ccc(O)cc2)C1=O (stereo not drawn),,"inconclusive [inhibitor, partial curve]"
Cc1nc(NC(=O)c2ccco2)sc1-c1csc(Nc2ccc(Cl)cc2)n1,,active: 2.51 µM
COc1ccc(NS(=O)(=O)c2cccc(C(=O)N(C)Cc3cccs3)c2)cc1,inactive: 9.37%,
O=C1Nc2ccccc2C12OC1CCCCC1O2 (stereo not drawn),inactive: 6.69%,
Cc1ccc(C)c(S(=O)(=O)N2CCN(CC(=O)NC(C)c3ccccc3)CC2)c1 (stereo not drawn),,"inconclusive [inhibitor, partial curve]"
CCc1ccc(S(=O)(=O)NCCc2cn3ccc(C)cc3n2)s1,,"inconclusive [inhibitor, single point]"
COc1ccc(CN(C2CCCC2)S(=O)(=O)c2ccc(-n3cnnn3)cc2)cc1,,"inconclusive [inhibitor, single point]"
COCCNC(=S)N/N=C(\C)c1ccc(-n2ccnc2)cc1,,"inconclusive [inhibitor, single point]"
O=C(COC(=O)c1ccc2[nH]c3c(c2c1)CCCC3)Nc1ccccc1,,active: 12.6 µM
O=C(CN1CCN(Cc2ccccc2Cl)CC1)N/N=C/C=C/c1ccccc1[N+](=O)[O-],,"inconclusive [inhibitor, single point]"
O=S1(=O)N=C(Nc2nc3c(s2)CCCC3)c2ccccc21,inactive: -6.57%,
COc1ccccc1CNC(=O)C1CCN(S(=O)(=O)c2ccc(-n3cnnn3)cc2)CC1,inactive: 20.8%,
CCCCCn1c(=O)[nH]c2cc(C(=O)NCCN3C(C)CCCC3C)ccc2c1=O (stereo not drawn),,"inconclusive [inhibitor, full curve]"
COc1ccc(NC(=O)C(=O)c2cn(CC(=O)N3CCCC3)c3ccccc23)cc1OC,,"inconclusive [inhibitor, single point]"
CC(C)Cc1ccc(C(C)C(=O)Nc2ccccc2O)cc1 (stereo not drawn),,active: 4.47 µM
Cc1nc2ccc(C(=O)Nc3ccccc3Cl)cc2s1,inactive: 1.55%,
Cc1ccc(C(=O)NC(=S)Nc2cccc(NC(=O)c3ccccc3)c2)cc1[N+](=O)[O-],,"inconclusive [inhibitor, partial curve]"
COc1ccc(NS(=O)(=O)c2cc(NC(=O)c3ccc(=O)[nH]c3)ccc2N2CCCC2)cc1,,"inconclusive [inhibitor, full curve]"
